According to ChEMBL document CHEMBL4888484, “Replenishing the malaria drug discovery pipeline: Screening and hit evaluation of the MMV Hit Generation Library 1 (HGL1) against asexual blood stage Plasmodium falciparum ,using a nano luciferase reporter read-out” (2022):
Screen size: about 150,000 compounds; about 540 (0.36%) showed an effect of 50% or more. This is one part of the list.

Each compound was assayed on Plasmodium falciparum (assay: Primary screen in NF54 nanoGlo assay, in single point, at 2uM, 72h; a lower Z score goes with more inhibition). Conditions: timepoint 72 hour.
Format: functional, Erythrocyte
For `COc1cccc(C2CN(C(=O)c3ccc4c(c3)OCO4)CC2C(=O)NCC(C)C)c1OC` (stereo not drawn), the “% Inhibition” value was -8% and the Z score was 0.85. With `Cc1noc(CN2CC[C@@]3(CCCN(C4CCCCC4)C3=O)C2)n1` the “% Inhibition” value was 9% and the Z score was -1.17. `COc1cccnc1NC(=O)[C@@H](C)Cn1ncc2ccccc21` was tested, and the “% Inhibition” value was 4% and the Z score was -0.51. With `CCCc1[nH]nc(-c2cc(OC)ccc2OC)c1NC(=O)c1ccc2c(c1)OCO2` the “% Inhibition” value was -12% and the Z score was 1.67. With `O=C(CN1CCOCC1)Nc1ccccc1-c1ccccc1` the “% Inhibition” value was -1% and the Z score was 0.15. `CC[C@H](NC(=O)CNC(=O)c1cccc(F)c1)c1nc(C)n[nH]1` was tested, and the “% Inhibition” value was 2% and the Z score was -0.26. In the case of `CCn1cncc1[C@@H]1CCCCN1C(=O)C12CC(C1)C2`, the “% Inhibition” value is reported as 1% and the Z score is reported as -0.16. `Cc1cc(CNC(=O)c2cnccn2)no1` was tested, and the “% Inhibition” value was 9% and the Z score was -1.19. With `CCC[C@@]1(C)CCCN(c2cnc(C#N)cn2)C1` the “% Inhibition” value was 4% and the Z score was -0.76. In the case of `CCc1noc(C)c1NC(=O)N1CCC[C@]1(C)Cc1cccc(F)c1`, the “% Inhibition” value is reported as -3% and the Z score is reported as 0.56. For `C[C@H]1C(=O)N(c2ccccc2-c2ccccc2)CCN1C(=O)c1ccc(Cl)cc1`, the “% Inhibition” value was -4% and the Z score was 0.62. With `O=C1C[C@]2(CCN(c3nc(-c4ccccc4)no3)C2)C(=O)N1` the “% Inhibition” value was -24% and the Z score was 3.05. For `COc1ccc(CN2C(=O)COC[C@H]2C(=O)NCc2ccc(F)cc2)c(OC)c1`, the “% Inhibition” value was -3% and the Z score was 0.49. `CCn1nc(C(=O)N2CCC(c3cc(N4CCCC4)ncn3)CC2)cc1C` was tested, and the “% Inhibition” value was -10% and the Z score was 1.4. With `Fc1cccc2c1CN(c1nc(C3CCOCC3)no1)CCO2` the “% Inhibition” value was 3% and the Z score was -0.43. For `CCn1ncc(C(=O)Nc2n[nH]cc2Cl)c1C`, the “% Inhibition” value was -8% and the Z score was 1.62. In the case of `CC1CN(CCN(C)CCN2CC(C)OCC2C)C(C)CO1` (stereo not drawn), the “% Inhibition” value is reported as 1% and the Z score is reported as -0.12. For `Cc1ccc(NC(=O)N2CCC(N(CCC(C)C)C3CCOCC3)CC2)cc1F`, the “% Inhibition” value was -7% and the Z score was 1.28. In the case of `Cn1cc([C@H]2CN(C(=O)c3n[nH]c4c3CCC4)C[C@H]2CC(=O)O)nn1`, the “% Inhibition” value is reported as -6% and the Z score is reported as 0.64. `Cc1cccc(C(=O)N(Cc2csc(COc3ccc(Cl)cc3)n2)C2CC2)c1` was tested, and the “% Inhibition” value was -12% and the Z score was 1.43. In the case of `CC1CCN(C(=O)CN(C)c2cc(C(C)C)[nH]n2)CC1`, the “% Inhibition” value is reported as -10% and the Z score is reported as 1.97. `O=C(Nc1ccc(C(=O)N2CCOCC2)c(F)c1)c1ccccn1` was tested, and the “% Inhibition” value was -1% and the Z score was 0.17. `CS(=O)(=O)N1CCN(c2ncnc3c2CCC3)CC1` was tested, and the “% Inhibition” value was 1% and the Z score was -0.08. For `O=C(CCc1c[nH]c2ccccc12)N[C@H]1CCc2nn(CC3CC3)c(=O)n2CC1`, the “% Inhibition” value was -8% and the Z score was 1.3. For `CCNC(=O)N1CCC(NC(c2ccccc2)C2CC2)C1` (stereo not drawn), the “% Inhibition” value was -18% and the Z score was 2.57. For `CCCN(Cc1ccsc1)C(=O)[C@@H]1CC[C@H](C(=O)O)C1`, the “% Inhibition” value was -10% and the Z score was 1.37. With `COc1cccc(CNC(=O)c2nnc(C(=O)Nc3ccc(F)cc3)s2)c1` the “% Inhibition” value was -18% and the Z score was 1.62. For `CN(C[C@H]1CCCCO1)C(=O)c1cccc(S(=O)(=O)N2CCC2)c1`, the “% Inhibition” value was -16% and the Z score was 1.74. In the case of `COc1ccc(CN(Cc2ccc(F)cc2)Cc2nc(C(=O)N3CCN(c4ccccc4C)CC3)cs2)cc1`, the “% Inhibition” value is reported as -14% and the Z score is reported as 1.38. In the case of `CCc1nc(NCc2ccnc(NC)c2)c2ccsc2n1`, the “% Inhibition” value is reported as -4% and the Z score is reported as 0.71. `O=C(NCC1CN2CCCC2CO1)N1CC2CCCC2C1` (stereo not drawn) was tested, and the “% Inhibition” value was 0% and the Z score was 0.04. For `Cc1cc(NC(=O)c2occc2-c2ccccc2)sn1`, the “% Inhibition” value was 35% and the Z score was -5. For `CCCOc1ncccc1CNc1cc(C)nc(N)n1`, the “% Inhibition” value was -8% and the Z score was 0.76. For `CC[C@H](OC)C(=O)N1CCCN(C2CCCCC2)CC1`, the “% Inhibition” value was -9% and the Z score was 1.51. `CC(C)n1nnc(NC(=O)N2CN(CCN(C)C)C(=O)[C@@H]2C)n1` was tested, and the “% Inhibition” value was -5% and the Z score was 0.89. For `N#Cc1nc(NC(=O)[C@@H]2Cc3cccc(F)c3O2)[nH]c1C#N`, the “% Inhibition” value was -7% and the Z score was 0.74. For `CC1CC(Nc2ccc(OCc3cccc(C#N)c3)c(F)c2)C(=O)O1` (stereo not drawn), the “% Inhibition” value was -3% and the Z score was 0.36. `Cc1ccc(N2CCC3(CCCN3Cc3ccc([C@@H]4CCCO4)s3)CC2)nn1` was tested, and the “% Inhibition” value was -4% and the Z score was 0.67. In the case of `O=C(NCCc1ccccn1)c1cnc(CN2CCCC2)s1`, the “% Inhibition” value is reported as 5% and the Z score is reported as -0.83. With `C#CCN1CCN(C(=O)CNc2cccc(NC(=O)CCC)c2)CC1` the “% Inhibition” value was -3% and the Z score was 0.42. With `FC(F)Oc1ccc(-c2c[n+](-c3cccc(C(F)(F)F)c3)c3n2CCCCC3)cc1` the “% Inhibition” value was 39% and the Z score was -3.9. For `Cc1cc(S(=O)(=O)Nc2nnc(C(C)C)o2)c(C)s1`, the “% Inhibition” value was 2% and the Z score was -0.14. With `C[C@H](NC(=O)CCn1cncn1)c1nc(-c2ccncc2)no1` the “% Inhibition” value was 6% and the Z score was -1.18. In the case of `NC(=O)c1[nH]nnc1NC(=O)[C@H]1CCCN(CC(F)(F)F)C1`, the “% Inhibition” value is reported as -16% and the Z score is reported as 2.41. In the case of `COc1cc(C(=O)N2C[C@@H](CN3C[C@@H](C)O[C@@H](C)C3)[C@@H](CO)C2)ccc1O`, the “% Inhibition” value is reported as -8% and the Z score is reported as 1.04. With `CC(C)(C)[C@@H]1CCCc2c(C(F)(F)F)nn(-c3nc4ccccc4s3)c21` the “% Inhibition” value was 6% and the Z score was -1. In the case of `COc1ccc(C(=O)N2CC[C@H](c3ncc(C)n3C(C)C)C2)cc1`, the “% Inhibition” value is reported as -6% and the Z score is reported as 0.88. In the case of `O=C(COCc1ccccc1)N1CC2(C[C@H](N3CCCC3)CO2)C1`, the “% Inhibition” value is reported as 12% and the Z score is reported as -1.39. `COc1cc(NC(=O)C(C)(C)C)c(OC)cc1Cl` was tested, and the “% Inhibition” value was 21% and the Z score was -2.44. In the case of `CC(C)N1C2CCC1CN(C(=O)C1CC=CCC1)CC2` (stereo not drawn), the “% Inhibition” value is reported as -7% and the Z score is reported as 0.72. With `COc1ccccc1[C@@H](O)Cn1cc(C(=O)Nc2ccc(C(N)=O)cc2)nn1` the “% Inhibition” value was -21% and the Z score was 4.01. In the case of `CCn1c(=O)c(CCC(=O)NCc2ccc(Cl)cc2)nc2c(C)nn(-c3ccccc3)c21`, the “% Inhibition” value is reported as -2% and the Z score is reported as 0.34. `Cc1ccc(-c2cc(CN(CC(C)C)C(=O)C(C)C)no2)cc1C` was tested, and the “% Inhibition” value was 5% and the Z score was -0.88. `Cc1nc(-c2cccs2)sc1C(=O)N1CCCC[C@@H]1C(=O)O` was tested, and the “% Inhibition” value was -9% and the Z score was 1.25. `Cc1cc(NC(=O)N[C@H]2CCCn3ncnc32)nn1-c1ccccc1` was tested, and the “% Inhibition” value was -6% and the Z score was 0.61. With `O=C(CC[C@@H]1N=C(O)N(Cc2ccccc2)C1=O)N1CCN(c2ccccn2)CC1` the “% Inhibition” value was -14% and the Z score was 1.8. With `O=C(CCc1ccc2c(c1)OCO2)N1CCc2[nH]cnc2[C@H]1c1cccnc1` the “% Inhibition” value was 3% and the Z score was -0.55. In the case of `O=C(c1cc2c([nH]c1=O)CCCCC2)N1CCCCCCC1`, the “% Inhibition” value is reported as 0% and the Z score is reported as 0.04. `C[C@@H]1CN(C(=O)CCC(F)(F)F)C[C@]1(C)O` was tested, and the “% Inhibition” value was -11% and the Z score was 1.4. `COc1ccccc1N1CCN(c2ncccc2CNC(=O)c2cnc[nH]2)CC1` was tested, and the “% Inhibition” value was 9% and the Z score was -1.78. In the case of `O=C1OC2CC1N(C(=O)c1c(F)cccc1Cl)C2` (stereo not drawn), the “% Inhibition” value is reported as -11% and the Z score is reported as 1.75. For `O=C(c1cc(Cl)cc(Cl)c1)N1CCC(CCc2ccc3c(c2)OCO3)CC1`, the “% Inhibition” value was -18% and the Z score was 1.73. `CCS(=O)(=O)c1ccc(O)c(NC(=O)[C@@H]2CCCc3[nH]ncc32)c1` was tested, and the “% Inhibition” value was -16% and the Z score was 1.37. With `O=C(NC1CCCC1c1ccccc1)c1cc(C2CC2)on1` (stereo not drawn) the “% Inhibition” value was 10% and the Z score was -1.99. `Cc1cccc(N2CCN(C(=O)C3CCN(c4nnc(N5CCCC5=O)s4)CC3)CC2)c1C` was tested, and the “% Inhibition” value was -17% and the Z score was 3.1. With `CNc1cc(C(=O)N[C@H]2CN(S(C)(=O)=O)C[C@@H]2C2CC2)ccn1` the “% Inhibition” value was 2% and the Z score was -0.33. `CCCCCC(=O)N[C@H]1CO[C@@H](CN2CCC(F)(F)C2)[C@@H]1O` was tested, and the “% Inhibition” value was 6% and the Z score was -0.81. `COc1ccc(Cl)cc1C(=O)N1Cc2cncnc2C1` was tested, and the “% Inhibition” value was -14% and the Z score was 2.48. With `CCc1ccc(-c2c(-c3ccccc3)ncn2Cc2nnc(C)o2)nc1` the “% Inhibition” value was -3% and the Z score was 0.46. In the case of `Cc1cc2nc(C(=O)N[C@H]3CC(=O)N(C4CCCCCC4)C3)cc(C)n2n1`, the “% Inhibition” value is reported as 2% and the Z score is reported as -0.24. For `CCOc1ccc(-c2cc3n(n2)C[C@@](C)(C(=O)NC2CCCCC2)N(CCN(C)C)C3=O)cc1`, the “% Inhibition” value was 10% and the Z score was -1.61. For `CCN(C)c1ccccc1NC(=O)NC1CCCC1O` (stereo not drawn), the “% Inhibition” value was 7% and the Z score was -1.24. `CN1C(=O)C[C@H](C(=O)NC(C)(C)c2nnc(N)s2)C1(C)C` was tested, and the “% Inhibition” value was 12% and the Z score was -1.59. For `COc1ccc(S(=O)(=O)N2CC[C@@H]3[C@@H](COCCN3Cc3ccccc3)C2)cc1`, the “% Inhibition” value was 36% and the Z score was -4.05. `Cc1c(-c2ccc(F)cc2)[nH]c2ccc(CNC(=O)c3cccnc3)cc12` was tested, and the “% Inhibition” value was -8% and the Z score was 1.35. `CC(C)C(=O)Nc1ccc2c(c1)C(N1CCN(C(C)C)CC1)=Nc1ccccc1O2` was tested, and the “% Inhibition” value was -4% and the Z score was 0.71. For `O=C(c1ccc2c(c1)CCC2)N1CCOC2(CCS(=O)(=O)CC2)C1`, the “% Inhibition” value was -1% and the Z score was 0.21. With `CCn1ccc2ccn(Cc3cccc(OC)c3)c(=O)c21` the “% Inhibition” value was -24% and the Z score was 2.1. In the case of `COc1nc(N2CCCCCC2)nc(N2CCC(N(C)C[C@H](C)O)CC2)n1`, the “% Inhibition” value is reported as -1% and the Z score is reported as 0.2. In the case of `CN=C(NCCc1cccs1)NC1CCCC1`, the “% Inhibition” value is reported as -4% and the Z score is reported as 0.79. In the case of `CC(C)Oc1cccc(CN2C[C@H](C)NC(=O)c3ccccc32)c1`, the “% Inhibition” value is reported as 2% and the Z score is reported as -0.27. In the case of `Cc1nnc(NC(=O)[C@H](C(C)C)N(C)C)s1`, the “% Inhibition” value is reported as -3% and the Z score is reported as 0.48. In the case of `CC(C)c1nc([C@H](C)NC(=O)c2ccccn2)cs1`, the “% Inhibition” value is reported as -5% and the Z score is reported as 0.48. For `Cc1nc(C2CC2)ncc1C(=O)N1C[C@@H]2CC[C@H]1CN(Cc1cscn1)C2`, the “% Inhibition” value was -4% and the Z score was 0.71.
